The values below are quoted from earlier work in patent US10176292B2, “STING crystals and modulators” (MEMORIAL SLOAN-KETTERING CANCER CENTER, priority 2013, dated 2019).

The target in the data set is hSTING (Homo sapiens, UniProt Q86WV6). The following applies: Conlon et al. 2013, Kim et al.; cited from earlier work.
Chain of UniProt Q86WV6 (Q86WV6 whole entry): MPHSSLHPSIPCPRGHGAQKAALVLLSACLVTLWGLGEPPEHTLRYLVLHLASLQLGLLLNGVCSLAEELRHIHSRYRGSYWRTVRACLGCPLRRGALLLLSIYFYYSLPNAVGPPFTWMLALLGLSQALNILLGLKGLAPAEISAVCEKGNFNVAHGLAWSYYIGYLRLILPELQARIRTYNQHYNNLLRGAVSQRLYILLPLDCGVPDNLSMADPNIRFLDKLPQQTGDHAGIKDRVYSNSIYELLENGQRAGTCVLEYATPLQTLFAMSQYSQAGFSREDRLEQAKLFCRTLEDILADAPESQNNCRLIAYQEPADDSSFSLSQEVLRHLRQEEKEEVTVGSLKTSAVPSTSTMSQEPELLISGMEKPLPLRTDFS

Turning to `Cc1ccc2c(=O)c3cccc(CC(=O)O)c3oc2c1C` [DMXAA, 5,6-dimethylxanthenone-4-acetic acid], the “effect on hSTING” value is on record as “no effect on hSTING”.
